The list shows a part of the results. Values were computed here from the reads of four pooled replicates and scatter widely.

This assay has as its target T1, Pho4 (S. cerevisiae) (UniProt P07270).
T1 sequence: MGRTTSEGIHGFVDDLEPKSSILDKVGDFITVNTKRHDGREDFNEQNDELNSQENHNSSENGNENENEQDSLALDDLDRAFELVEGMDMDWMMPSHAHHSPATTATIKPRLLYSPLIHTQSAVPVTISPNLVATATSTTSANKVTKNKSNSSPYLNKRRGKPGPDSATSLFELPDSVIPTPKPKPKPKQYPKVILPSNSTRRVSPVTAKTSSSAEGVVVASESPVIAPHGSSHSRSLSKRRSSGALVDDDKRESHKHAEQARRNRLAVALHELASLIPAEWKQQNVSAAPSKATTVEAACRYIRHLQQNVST
Nature of the assay: relative binding free energy (BET-seq); higher = weaker binding. Conditions: reference: library average.
On to AATGGCACGTGTCTGA, for which the “relative binding free energy” value turned out to be 0.0418 kJ/mol.
On to AGTGTCACGTGTAGTG, for which the “relative binding free energy” value was -0.0837 kJ/mol.
The figure for ATGTCCACGTGTGGGG is -0.126 kJ/mol.
GGGGGCACGTGAGCGA: the “relative binding free energy” value was found to be 0.753 kJ/mol.
For the sequence TTGGTCACGTGCCGGT, the “relative binding free energy” value was 0.251 kJ/mol.
For the sequence CTAGGCACGTGAAGTT, the “relative binding free energy” value came to 0.0418 kJ/mol.
With TATGACACGTGAGGCT, the “relative binding free energy” value was found to be 0.837 kJ/mol.
On to ATGGGCACGTGAATTG, for which the “relative binding free energy” value was determined as 0.418 kJ/mol.
Regarding TAGTGCACGTGCGGAG, the “relative binding free energy” value turned out to be 0.126 kJ/mol.
For the sequence GTAAACACGTGTGGCT, the “relative binding free energy” value is 0.293 kJ/mol.
Regarding TGTGGCACGTGGCAAA, the “relative binding free energy” value is -0.879 kJ/mol.
Consider AATTTCACGTGTAAGA, for which the “relative binding free energy” value came out at 1.13 kJ/mol.
The figure for GAGGGCACGTGACTGG is -0.46 kJ/mol; for CGGCTCACGTGTGGGT it is 1.59 kJ/mol; for TTCCACACGTGGTTGT it is 0.837 kJ/mol.
Take TAGTTCACGTGCTATA: the “relative binding free energy” value was 0.502 kJ/mol.
To ATGGGCACGTGAAGGA belongs 1.13 kJ/mol.
To ATTTTCACGTGAGCTG belongs 1.63 kJ/mol; to GCTTTCACGTGATGGG, 1.59 kJ/mol; to TGTGCCACGTGTGCAG, -0.628 kJ/mol.
AGTTACACGTGAAGAG: the “relative binding free energy” value was determined as 1.72 kJ/mol.
For AGGGCCACGTGGTGAG, the “relative binding free energy” value was -0.502 kJ/mol.
In the case of TTATGCACGTGTGGCG, the “relative binding free energy” value was found to be 0.502 kJ/mol.
The figure for CTGGGCACGTGGGCGC is -1.05 kJ/mol; for GCTTTCACGTGGGGTG it is 0.251 kJ/mol; for TTCTACACGTGTAGTA it is 0.753 kJ/mol.
As for ATGACCACGTGGGGGT, the “relative binding free energy” value is -0.795 kJ/mol.
With TTGTTCACGTGGCATG, the “relative binding free energy” value is 0.628 kJ/mol.
Consider TCTTGCACGTGGTGCT, for which the “relative binding free energy” value is -0.0837 kJ/mol.
On to TCTTTCACGTGTGGCG, for which the “relative binding free energy” value worked out at 1.76 kJ/mol.
As to AATTGCACGTGACAGG, the “relative binding free energy” value is 1.13 kJ/mol.
Take CTGGACACGTGGCGGA: the “relative binding free energy” value is 0.251 kJ/mol.
On to ATGCTCACGTGTTTCT, for which the “relative binding free energy” value is 1.46 kJ/mol.
Take GTGTTCACGTGATTAG: the “relative binding free energy” value was 1.67 kJ/mol.
As to GTGTACACGTGAATAG, the “relative binding free energy” value was 1.8 kJ/mol.
Regarding AGTCTCACGTGGTAGA, the “relative binding free energy” value is 1.42 kJ/mol.
As for CGTAGCACGTGGACGG, the “relative binding free energy” value worked out at 0.0837 kJ/mol.
In the case of CGTGTCACGTGAGCTG, the “relative binding free energy” value is 0.669 kJ/mol.
Take ATGGGCACGTGGTCAT: the “relative binding free energy” value was -1.26 kJ/mol.
As to GGAGTCACGTGTTGTC, the “relative binding free energy” value came to 1 kJ/mol.
Regarding GTTTGCACGTGGGCAG, the “relative binding free energy” value is -0.837 kJ/mol.
As to GTTGTCACGTGCGATT, the “relative binding free energy” value is 0.962 kJ/mol.
For ATTGTCACGTGTAAAA, the “relative binding free energy” value worked out at 1.05 kJ/mol.
To GGGGCCACGTGACTGT belongs 0.377 kJ/mol.
For TGTGACACGTGGGCTA, the “relative binding free energy” value was -0.46 kJ/mol.
Take TTATGCACGTGGTTGA: the “relative binding free energy” value is -0.418 kJ/mol.
For TAAATCACGTGGATGT, the “relative binding free energy” value amounted to 0.544 kJ/mol.
For the sequence TCGTTCACGTGTGGCT, the “relative binding free energy” value stood at 0.837 kJ/mol.
For the sequence GTGGACACGTGTCATG, the “relative binding free energy” value worked out at 0.0837 kJ/mol.
The figure for GTTGCCACGTGTGTGG is 0.377 kJ/mol; for ATGAGCACGTGTCGTG it is -0.418 kJ/mol; for ATTTTCACGTGAAAAT it is 0.544 kJ/mol.
Consider GAGGGCACGTGAAGGT, for which the “relative binding free energy” value was found to be 0.92 kJ/mol.
To TTGACCACGTGTTGTG belongs -0.293 kJ/mol.
The figure for TGGAGCACGTGTAATA is -0.251 kJ/mol; for ATTTCCACGTGGCGGT it is 0.418 kJ/mol; for AGTGACACGTGAAGAG it is 0.46 kJ/mol.
With CTGGTCACGTGCAGGG, the “relative binding free energy” value is 0.753 kJ/mol.
With GGTTACACGTGAGTCT, the “relative binding free energy” value came to 1.46 kJ/mol.
On to AACGGCACGTGTGGGC, for which the “relative binding free energy” value is -0.167 kJ/mol.
In the case of ATGGCCACGTGGTGGT, the “relative binding free energy” value was -0.544 kJ/mol.
To AGGGACACGTGTGGTG belongs 0.251 kJ/mol; to AGGGTCACGTGCGTAT, -0.0837 kJ/mol; to GCGGGCACGTGTTAGG, -0.251 kJ/mol.
GTGTGCACGTGCGTTT: the “relative binding free energy” value was -0.377 kJ/mol.
For the sequence CGAAACACGTGGGTTT, the “relative binding free energy” value is -0.293 kJ/mol.
For TCTAGCACGTGTGGTG, the “relative binding free energy” value is -0.293 kJ/mol.
On to TGCCTCACGTGGCGGG, for which the “relative binding free energy” value turned out to be 0.418 kJ/mol.
To AGAGTCACGTGGTAGG belongs -0.251 kJ/mol.
Consider TGGATCACGTGTGATG, for which the “relative binding free energy” value was determined as 1.21 kJ/mol.
TAATGCACGTGGTTGT: the “relative binding free energy” value was -0.586 kJ/mol.
Regarding TGATCCACGTGGGAGG, the “relative binding free energy” value is -0.46 kJ/mol.
For ATGGTCACGTGGGAGT, the “relative binding free energy” value stood at 0.126 kJ/mol.

The values above are taken from the BET-seq Pho4 binding data (Le et al. 2018).
